According to PubChem BioAssay AID588342 (National Center for Advancing Translational Sciences (NCATS), 2011):
Among all 360,000 compounds or so, about 25,000 (6.9%) were called active. The shares of active, inactive and inconclusive entries below differ from those in the screen. The call rests on the fitted dose curve; in most records, active means well fitted inhibition curve with a large enough effect; inconclusive means small, poorly fitted or top-dose-only effect; inactive means flat fitted curve, though single readings scatter. Potencies beside an inconclusive call are fits to weak or partial responses and may not hold up.

Target: Luciferin 4-monooxygenase (Photinus pyralis) (UniProt P08659)
Assay: qHTS profiling assay for firefly luciferase inhibitor/activator using purifed enzyme and Km concentrations of substrates (counterscreen for miR-21 project); further: nearly all actives have a fitted effect of over 55% in size
Details: purified FLuc, luminescence inhibition; series mostly up to 57.5 µM
Summary of the method: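 Purified P. pyralis luciferase, 10 nM final, with Km-level 10 uM D-luciferin and 10 uM ATP in 50 mM Tris acetate pH 7.5, 10 mM Mg acetate, 0.01% Tween-20, 0.05% BSA; 6-point qHTS titration about 60 µM downward; luminescence read.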
Potency means the concentration at half of the fitted maximal effect; tags describe the fitted curve by direction and shape.

Chain of UniProt P08659 (P08659 whole entry, looked up): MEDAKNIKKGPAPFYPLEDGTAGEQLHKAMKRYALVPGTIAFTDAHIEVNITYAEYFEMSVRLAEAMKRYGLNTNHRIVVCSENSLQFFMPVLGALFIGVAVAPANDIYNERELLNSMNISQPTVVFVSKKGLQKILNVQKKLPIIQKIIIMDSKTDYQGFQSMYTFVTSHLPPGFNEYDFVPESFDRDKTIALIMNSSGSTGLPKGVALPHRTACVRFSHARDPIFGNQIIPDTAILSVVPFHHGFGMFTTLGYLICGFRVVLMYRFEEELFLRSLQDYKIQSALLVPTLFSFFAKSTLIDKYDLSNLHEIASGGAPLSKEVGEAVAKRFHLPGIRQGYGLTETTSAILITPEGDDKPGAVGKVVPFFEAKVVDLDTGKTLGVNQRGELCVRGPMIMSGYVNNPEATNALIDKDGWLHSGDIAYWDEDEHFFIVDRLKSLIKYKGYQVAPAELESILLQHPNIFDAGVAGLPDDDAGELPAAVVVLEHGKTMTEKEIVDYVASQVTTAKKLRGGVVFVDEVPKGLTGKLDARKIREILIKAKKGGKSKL

SMILES	Potency
CN(C)c1ccc(NC(=O)CCN2CCN(c3ccccn3)CC2)cc1	inactive
CC1=CCC2C(=O)N(c3nc4ccccc4n3C)C(=O)C2C1 (configuration not stated)	inconclusive: 33.8 µM [inhibitor, partial curve, poor fit]
O=C1CN(C(=O)COc2ccc(F)cc2Br)c2ccccc2N1	inconclusive: 23.9 µM [inhibitor, single point]
O=C(NCCCn1ccnc1)/C(=C\c1ccccc1Cl)NC(=O)c1ccccc1	inactive
Cc1c(-c2ccccc2)nc2ccccc2c1C(=O)Oc1ccc([N+](=O)[O-])cc1	inactive
CC1CCCC(C)N1C(=O)CSCc1ccc(Cl)cc1 (configuration not stated)	inactive
CCC(C)NC(=O)c1nn(-c2ccc(C)cc2)nc1CO (configuration not stated)	inactive
O=Cc1c[nH]c2ccc(OCc3ccccc3)cc12	inconclusive: 23.9 µM [inhibitor, partial curve, poor fit]
COc1ccc(/C=C/C(=O)Nc2cc(=O)n(C)c(=O)n2C)cc1	active: 9.53 µM
O=C(Nc1ccc(Cc2ccncc2)cc1)c1ccc(Cl)c([N+](=O)[O-])c1	inconclusive: 23.9 µM [inhibitor, partial curve, poor fit]
CCn1c(SCC(=O)Nc2ccccc2C(=O)OC)nc2ccsc2c1=O	inconclusive: 37.9 µM [inhibitor, partial curve, poor fit]
CNC(=O)[C@@]1(C)C=C[C@@H](Cc2ccccc2)N1C(=O)OC	inconclusive: 37.9 µM [inhibitor, partial curve, poor fit]
CCOc1ccc(NC(=O)CSc2ccc(-c3cccnc3)nn2)cc1	inconclusive: 15.1 µM [inhibitor, partial curve, poor fit]
c1coc(Cn2c(-c3ccco3)nc3ccccc32)c1	inconclusive: 23.9 µM [inhibitor, single point]
O=C(N/N=C/c1cccc(F)c1)c1cc(-c2ccco2)nc2ccccc12	active: 0.536 µM
CCc1ccc(CSc2nc(-c3ccccc3F)nc3c2Cc2c(CO)cnc(C)c2O3)cc1	inactive
Cc1cccc(C(=O)NNC(=O)c2c(-c3ccccc3Cl)noc2C)c1O	inactive
COC(=O)c1sc(NC(=S)NC(=O)c2ccccc2)nc1C	active: 4.78 µM
CC(=O)c1c(C)[nH]c(C(=O)/C(C#N)=C/c2cccc(C)c2)c1C	inconclusive: 19 µM [inhibitor, partial curve]
Cc1c(CC(=O)NCC(=O)NCC(=O)O)c(=O)oc2cc3oc4c(c3cc12)CCCC4	inconclusive: 23.9 µM [inhibitor, partial curve]
O=C(O)CN(c1ccccc1)S(=O)(=O)c1cc(C(F)(F)F)cc(C(F)(F)F)c1	inconclusive: 26.9 µM [inhibitor, partial curve, poor fit]
CN(CCC#N)C(=O)COC(=O)c1ccc2[nH]c3c(c2c1)CCCC3	inconclusive: 33.8 µM [inhibitor, partial curve, poor fit]
COc1ccc(NC(=S)N/N=C/c2ccc(F)cc2)cc1OC	inconclusive: 37.9 µM [inhibitor, partial curve, poor fit]
CC(=O)Nc1cccc(N/C=C(\C=O)c2nc3ccccc3o2)c1	active: 19 µM

SMILES	Potency
CCC(CC)CN1C(Nc2ccccc2)=NC[C@@H]1C	inactive
Brc1ccc(-c2noc(COc3ccc4c(c3)CCC4)n2)o1	inconclusive: 30.1 µM [inhibitor, partial curve, poor fit]
Cc1ccccc1COC(=O)c1nn(-c2ccccc2)nc1N	inconclusive: 37.9 µM [inhibitor, partial curve, poor fit]
COc1ccccc1NC(=O)c1cc(Cl)nc2ccccc12	inactive
Cc1ccc(OCc2nnc(SCC(=O)Nc3ccc4c(c3)OCCO4)n2Cc2ccco2)cc1	inconclusive: 19 µM [inhibitor, single point]
COc1ccc(NC(=O)c2cc(C)n(Cc3cccs3)c2C)cc1	active: 0.849 µM
C#CCNC(=O)C1=C[C@@H](c2csc3ccccc23)C[C@@H](OCc2ccc(CO)cc2)O1	inconclusive: 37.9 µM [inhibitor, partial curve, poor fit]
CC1CCc2nc3ccc(S(=O)(=O)N4CCC(C(=O)N5CCCCCC5)CC4)cc3c(C(=O)O)c2C1 (configuration not stated)	inconclusive: 26.9 µM [inhibitor, partial curve, poor fit]
CSCCC(NC(=O)c1ccccc1)C(=O)N(C)CC(=O)Nc1ccc(N2CCOCC2)cc1 (configuration not stated)	inconclusive: 37.9 µM [inhibitor, partial curve, poor fit]
O=C(/C=C/c1ccccc1Cl)N1CCC(c2nc3ccccc3o2)CC1	inconclusive: 15.1 µM [inhibitor, partial curve]
CN(C)c1ccnc(N(Cc2ccccc2)Cc2ccccc2)c1C#N	inconclusive: 16.9 µM [inhibitor, partial curve]
CC1=CC2=NC(=O)/C(=C\c3ccc(-c4cccc(Cl)c4)o3)C(=N)N2O1	inactive
Cc1ccc(S(=O)(=O)Nc2ccccc2C(=O)N2CCCCC2C)c(C)c1NS(C)(=O)=O (configuration not stated)	inactive
Nc1nc2c(s1)CC(c1ccccc1)CC2 (configuration not stated)	active: 23.9 µM
COc1ccc(C)cc1NC(=O)CSc1nnc(CC(=O)Nc2cccc(C(F)(F)F)c2)n1C	inactive
COc1cc(/C=N/NC(=O)c2cccc(C(=O)N/N=C/c3ccc(O)c(OC)c3)n2)ccc1O	active: 0.849 µM
COc1cc(NC(=O)CN2CCN(c3ccc(F)cc3)CC2)cc(OC)c1	inactive
Cc1ccc(NCc2ccccc2O)cc1	inconclusive: 26.9 µM [inhibitor, single point]
O=c1c2cccc(Cl)c2nc2n1Cc1ccccc1-2	active: 12 µM
Cc1cc(C)c2c(c1)NC(C(=O)O)C1CC=CC21 (configuration not stated)	inconclusive: 23.9 µM [inhibitor, partial curve, poor fit]
O=C(Nc1ccccc1Br)C(=O)N1CCCC1	inconclusive: 37.9 µM [inhibitor, partial curve, poor fit]
COCCn1c(COc2ccc(C)cc2)nc2ccccc21	active: 9.53 µM
Cc1ccc(C)c(C(=O)N(Cc2nc(-c3ccc(Cl)cc3)no2)C(C)C)c1	inactive
O=C(OCc1ccccc1)/C(=C(\O)c1ccccc1Br)c1ccc(-c2ccccc2)cn1	inactive

SMILES	Potency
COc1ccc(N2CSC3=C(C#N)C(c4cccc(OC)c4OC)CC(=O)N3C2)cc1 (configuration not stated)	inconclusive: 13.5 µM [inhibitor, partial curve]
COc1cccc(CNC(=O)Cn2c(=O)ccc3cc(S(=O)(=O)N4CCCC4)ccc32)c1	inactive
O=C(NCCc1ccc(Cl)cc1)C1CCN(c2ncccn2)CC1	inconclusive: 0.0095 µM [inhibitor, partial curve, poor fit]
COc1cc(/C=N/NC(=O)CSCc2ccc([N+](=O)[O-])cc2)cc(OC)c1OC	inactive
COc1ccc(-c2ccc(SCC(=O)c3cccs3)nn2)cc1	active: 10.7 µM
COc1cc2c(cc1OC)CN(c1ccc(F)cc1[N+](=O)[O-])CC2	active: 12 µM
COCCNC(=O)CSc1nc2ccc(N3CCOCC3)cc2c(=O)n1Cc1ccc(OC)cc1	inconclusive: 37.9 µM [inhibitor, partial curve, poor fit]
COC(=O)c1cc(OC)c(OC)cc1NC(=O)c1ccco1	inactive
COc1ccc(-c2cc(=O)oc3cc(OC(C)C(=O)O)ccc23)cc1 (configuration not stated)	inconclusive: 37.9 µM [inhibitor, partial curve, poor fit]
CC(OC(=O)c1ccco1)C(=O)NC1CCCC1 (configuration not stated)	inactive
Cc1cc2nc(C3CCN(Cc4nnnn4Cc4cccs4)CC3)[nH]c2cc1C	inconclusive: 16.9 µM [inhibitor, partial curve]
COc1ccc(CC(=O)Nc2nnc(C(C)C)s2)cc1	inactive
Cc1ccc(/C=C/C(=O)c2ccccc(=O)c2O)cc1C	inconclusive: 37.9 µM [inhibitor, single point]
O=C(O)c1ccc(/C=N/Nc2nc3ccccc3[nH]2)cc1	inconclusive: 15.1 µM [inhibitor, partial curve]
Cc1ccc(NC(=O)NCCCc2ccccc2)cc1	inconclusive: 26.9 µM [inhibitor, single point]
COC(=O)c1ccc(CSc2nc(N)cc(N)n2)cc1	inconclusive: 16.9 µM [inhibitor, partial curve]
O=C(Oc1cccc(NC2=NS(=O)(=O)c3ccccc32)c1)c1cccnc1	inconclusive: 26.9 µM [inhibitor, single point]
O=C(O)/C=C/C(=O)NCc1cn(-c2ccccc2)nc1-c1cccc(Br)c1	inconclusive: 16.9 µM [inhibitor, partial curve]
O=C(NCC(c1ccco1)N1CCCC1)c1cccc(S(=O)(=O)Nc2ccc(F)cc2)c1 (configuration not stated)	inactive
CC(C)(C)c1ccc(-c2noc(C(=O)NN)n2)cc1	inconclusive: 23.9 µM [inhibitor, single point]
ON=C1c2ccccc2-c2ccccc21	inconclusive: 37.9 µM [inhibitor, partial curve, poor fit]
COc1cc(/C=C(/C#N)c2nc(-c3cc4ccccc4oc3=O)cs2)ccc1O	inconclusive: 3.79 µM [inhibitor, full curve]
O=C1NC(=Nc2ccccc2Cl)S/C1=C\c1cc([N+](=O)[O-])ccc1O	inconclusive: 23.9 µM [inhibitor, single point]
CCOC(=O)Cc1csc(NC(=O)c2csc(C)c2)n1	inconclusive: 16.9 µM [inhibitor, partial curve]
